# Data reported in paper PMC4336329 (PLoS ONE, 2015).
# In all, about 310,000 compounds went through this assay and about 14,000 (4.5%) showed an effect of 50% or more. Effects have a minus sign here. Some of the results follow.
# Molecular target: human ether-à-go-go-related gene (hERG) potassium channel (human, UniProt Q12809)
# Assay: primary screen, population patch clamp on CHO cells stably expressing hERG
# 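Further: peak tail current of the secondary pulse compared with the same well before compound.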
# Chain of human ether-à-go-go-related gene (hERG) potassium channel (Q12809 whole entry, looked up): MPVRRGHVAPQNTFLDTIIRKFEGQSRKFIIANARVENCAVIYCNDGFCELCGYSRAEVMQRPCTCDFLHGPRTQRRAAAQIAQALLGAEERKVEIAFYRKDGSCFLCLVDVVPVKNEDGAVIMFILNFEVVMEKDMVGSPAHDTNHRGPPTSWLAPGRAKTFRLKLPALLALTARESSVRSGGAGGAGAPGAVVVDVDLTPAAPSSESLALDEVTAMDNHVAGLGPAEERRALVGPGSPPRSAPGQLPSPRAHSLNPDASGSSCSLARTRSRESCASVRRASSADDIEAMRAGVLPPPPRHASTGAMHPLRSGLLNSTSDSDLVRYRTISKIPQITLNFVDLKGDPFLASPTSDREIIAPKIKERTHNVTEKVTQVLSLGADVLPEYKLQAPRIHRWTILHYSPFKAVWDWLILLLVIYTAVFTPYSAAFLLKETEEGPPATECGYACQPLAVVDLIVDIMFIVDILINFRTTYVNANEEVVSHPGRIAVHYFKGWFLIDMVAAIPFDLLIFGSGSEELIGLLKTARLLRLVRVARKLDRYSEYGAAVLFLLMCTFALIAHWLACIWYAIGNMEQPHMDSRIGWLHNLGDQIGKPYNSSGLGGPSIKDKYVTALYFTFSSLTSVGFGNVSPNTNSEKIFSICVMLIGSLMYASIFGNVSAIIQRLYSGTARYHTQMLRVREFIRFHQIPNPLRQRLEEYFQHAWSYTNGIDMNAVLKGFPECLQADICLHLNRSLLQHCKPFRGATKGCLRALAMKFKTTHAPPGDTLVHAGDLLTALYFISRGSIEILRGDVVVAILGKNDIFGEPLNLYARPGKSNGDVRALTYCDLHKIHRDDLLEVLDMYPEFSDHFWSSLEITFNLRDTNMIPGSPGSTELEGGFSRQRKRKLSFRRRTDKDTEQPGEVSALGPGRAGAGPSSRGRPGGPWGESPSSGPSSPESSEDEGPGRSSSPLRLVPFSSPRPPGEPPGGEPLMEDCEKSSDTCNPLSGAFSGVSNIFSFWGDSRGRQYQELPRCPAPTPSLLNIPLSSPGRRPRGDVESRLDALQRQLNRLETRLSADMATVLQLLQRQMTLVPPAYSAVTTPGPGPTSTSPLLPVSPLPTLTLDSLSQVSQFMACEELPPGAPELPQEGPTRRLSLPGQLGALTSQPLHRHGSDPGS
row,SMILES,"hERG current change (%, negative = inhibition) at 10uM [%]"
1,Cc1ccc2c(CC(=O)N(CC3CCCO3)c3c(N)n(Cc4ccccc4)c(=O)[nH]c3=O)coc2c1 (stereo not drawn),-1.74
2,CN1CCO/C1=C(\C(Cl)=C(Cl)Cl)[N+](=O)[O-],17.8
3,O=C1CCC(=O)N1c1ccc(S(=O)(=O)N2CCCC2)cc1,1.94
4,O=C(Cn1ccc([N+](=O)[O-])n1)Nc1nccs1,4.65
5,COc1cccc(-c2ccc3nnc(SCC(=O)Nc4ccc(NC(C)=O)cc4)n3n2)c1,2.63
6,CN(Cc1ccccc1)C(=O)CN1C(=O)NC2(CCCCCCC2)C1=O,-11.7
7,CC(=O)Nc1ccc2c(CSc3nnc(-c4cccnc4)n3-c3ccc(C)cc3C)cc(=O)oc2c1,-17.8
8,Cc1cc(C)c2sc(NNC(=O)C3COc4ccccc4O3)nc2c1 (stereo not drawn),5.82
9,Cc1ccc2[nH]ccc(=O)c2c1,11.7
10,CN(CCc1ccccn1)C(=O)CCC1CCCN(Cc2ccccc2OC(F)F)C1 (stereo not drawn),1.62
11,CCOC(=O)[C@H]1[C@H]2COc3ccc(OC)cc3[C@@H]2N2C(=O)CN(Cc3ccc(F)cc3)C(=O)[C@@]12C,-26.5
12,CC1(C)S/C(=N/N=C/c2ccco2)NC1=O,13.9
13,CCn1cc(C(=O)NCCCN2CCN(C)CC2)c(=O)c2cc(S(=O)(=O)N3CCc4ccccc4C3)ccc21,-20.4
14,Nc1nc(C(c2ccccc2)c2ccccc2)cs1,5
15,CCn1c(C)nc2cc(C(=O)NNC(=O)c3ccc(Cl)nc3)ccc21,21.2
16,COc1cc(OC)c(OC)cc1CNC(=O)CCN1C(=O)c2cccc([N+](=O)[O-])c2C1=O,17.6
17,Cc1nn(-c2ccccc2)c(C)c1/C=N/NC(=O)c1cc(O)cc(O)c1,12.8
18,CC1CCN(C(=O)c2ccc(CSc3ccc(Cl)cc3)cc2)CC1,-22.8
19,COc1ccc(CCN2C(=O)c3cccc4cccc(c34)C2=O)cc1OC,12.9
20,COc1ccc(-c2nnc(SCC(=O)NC3CCCCC3)o2)cc1OC,-9.47
21,O=C(CSc1nnc2ccccn12)NNC(=O)c1cccc([N+](=O)[O-])c1,-6.28
22,Cc1cc(Nc2ccc(Br)cc2)nc2ccccc12,15.5

row,SMILES,"hERG current change (%, negative = inhibition) at 10uM [%]"
1,O=C(c1ccc(-n2cncn2)c([N+](=O)[O-])c1)N1CCN(c2cccc(Cl)c2)CC1,-68.5
2,COP(=O)(OC)C(NS(=O)(=O)c1ccccc1)C(Cl)(Cl)Cl (stereo not drawn),23.8
3,N#C/C(C(=O)NCc1ccco1)=C1/SC=C(c2ccccc2)N1c1ccccc1,-12.2
4,CCC(C(=O)N1C[C@H]2C[C@@H](C1)c1cccc(=O)n1C2)c1ccccc1 (stereo partly drawn),-2.49
5,CCN(CC)C(=O)C1CCN(Cc2ccc(OCc3ccccc3)c(OC)c2)CC1.O=C(O)C(=O)O,-32
6,O=C(CN1CCN(CC(=O)Nc2cccc(F)c2)CC1)NCC1(N2CCOCC2)CCCCC1,-27
7,CCCCOc1ccc(CCC(=O)N/N=C/c2ccco2)cc1,-22.8
8,COCCNCCOCCOc1cccc(OC)c1,-0.3
9,CCOc1ccc(NC(=O)c2ccc(NC(=O)Cc3n[nH]c(=O)c4ccccc34)cc2)cc1,4.35
10,COc1ccc(C(=O)c2c[nH]c(C(=O)NCCCn3ccnc3)c2)cc1,0.775
11,O=C(COC(=O)c1ccco1)NCCNC(=O)COC(=O)c1ccco1,21.8
12,CN(Cc1cccc(F)c1)C(=O)C(c1ccccc1)c1ccccc1,16.7
13,Cc1cc(C)nc(SCC(=O)c2ccc(F)cc2F)n1,-1.55
14,Cc1ccc(S(=O)(=O)N2CCOCC2)cc1NC(=O)COC(=O)c1cc[n+]([O-])cc1,15.5
15,O=C(NCc1ccco1)C1CC(c2ccccc2O)=NO1 (stereo not drawn),17.2
16,O=C(NNc1ccc(C2CCCCC2)cc1)C(O)(c1ccccc1)c1cccs1 (stereo not drawn),-10.4
17,O=C(COc1ccccc1Br)NC1CCCC1,-9.97
18,Cc1cccc(NC(=O)Cc2ccc(F)cc2)c1,-6.63
19,COC(=O)C1=C(C)OC(N)=C(C#N)C1c1cc(OC)ccc1OC (stereo not drawn),-10.9
20,Clc1ccccc1OCCN1CCCCC1,-16.2
21,Cc1ccc(-c2csc(N3CCN(CCCn4c(C(F)(F)F)nc5ccccc54)CC3)n2)cc1,-4.95
22,COc1cc(N=C2C(=O)N3CCCc4cccc2c43)cc(OC)c1,1.84

row,SMILES,"hERG current change (%, negative = inhibition) at 10uM [%]"
1,O=C(Cc1cc(=O)[nH]c(=O)[nH]1)N1CCN(C(=O)c2ccco2)CC1,14.1
2,O=C(Nc1cccc(S(=O)(=O)N2CCOCC2)c1)C1CC(=O)N(c2ccc3c(c2)OCCO3)C1 (stereo not drawn),8.18
3,O=C(Nc1ccc(N2CCN(c3ccccc3)CC2)c(F)c1)C1CC1,6.28
4,Cc1cc(C(=O)CCl)c(C)n1CCc1ccc(F)cc1,27.2
5,Cc1nc2nc(-c3cccs3)cn2nc1C,6.22
6,COc1ccc(C(=O)NCc2oc(-c3ccccc3)cc2C(=O)O)cc1,13.2
7,CC(=O)Nc1ccc(N(C(=O)c2cnccn2)C(C(=O)NC2CCCCC2)c2ccc(O)cc2)cc1 (stereo not drawn),2.71
8,CC(C)(C)N1CC2(c3ccccc3)CN(C(C)(C)C)CC(c3ccccc3)(C1)C2=O,-16.3
9,O=C(CN1C(=O)c2ccccc2C1=O)NCC1COc2ccccc2O1 (stereo not drawn),-5.03
10,O=C(COC(=O)Cc1ccccc1F)Nc1ccc(Cl)cn1,-20.7
11,CCOCCCNC(=O)C(NC(=O)c1ccccc1O)c1ccc(C)cc1 (stereo not drawn),13
12,CC(C)N(Cc1ccccc1)C(=O)CCS(=O)(=O)c1ccc2c(c1)oc(=O)n2C,4.61
13,O=C(Nc1nnc(-c2ccccc2)s1)c1ccccc1O,14.8
14,COc1ccccc1N1N=C(c2ccc([N+](=O)[O-])cc2)CC1c1ccccc1 (stereo not drawn),14.7
15,Cc1ccc2oc(=O)cc(/C=C/c3ccccc3)c2c1,-16.7
16,N#CC1(NC(=O)COC(=O)CCN=C2NS(=O)(=O)c3ccccc32)CCCCC1,29.3
17,CCNC(=O)Nc1nc2ccccc2s1,7.23
18,Cc1ccc(S(=O)(=O)c2ccccc2)cc1S(=O)(=O)N1CCOCC1,-2.45
19,Nc1nonc1C(=O)N/N=C/c1ccc([N+](=O)[O-])o1,-21.4
20,Cc1ccc(S(=O)(=O)N(Cc2nccn2C)C(C)C)cc1.Cl,-3.22
21,Cc1cc(C(=O)N2CC(C)CC(C)C2)c(C)o1 (stereo not drawn),-1.07
22,COc1cccc(CN2CCC(Oc3ccc(C(=O)NCc4ccccn4)cc3)CC2)c1,-19.6

row,SMILES,"hERG current change (%, negative = inhibition) at 10uM [%]"
1,Cc1nn2c(NCc3cccnc3)c3c(nc2c1-c1ccccc1)CCC3,-34.2
2,COc1ccccc1C(=O)N/C(=C\c1cn(C)c2ccccc12)C(=O)N1CCCC1,-10.9
3,CCn1ncc(CN2CCN(C(=O)Nc3ccccc3C(=O)OC)CC2)c1C,-7.28
4,CC(=O)Nc1ccc(-c2cc(-c3ccccc3)nc(-c3ccccc3)n2)cc1,6.33
5,Cc1ccc(CNC(=O)/C(C#N)=C\c2ccc(N(C)C)cc2)cc1,4.62
6,CN(C(=S)Nc1ccc(F)cc1)C(c1ccccc1)c1ccccc1,11.1
7,CC(OC(=O)CCC(=O)c1cccs1)C(=O)Nc1ccc(Cl)cn1 (stereo not drawn),-9.49
8,Cc1noc2ncnc(Oc3ccc(F)cc3)c12,-14.3
9,CNC(=O)OC(C)CNS(=O)(=O)c1ccc(C)cc1 (stereo not drawn),-3.92
10,CCOC(=O)C1=C(N)N(c2ccccc2)C(=O)C1,-2.06
11,CC(=O)c1cccc(NC(=O)C2CC(=O)N(CCc3ccccc3)C2)c1 (stereo not drawn),-2.22
12,CC1=C(C/C=C(\C)CCCC(C)CCCC(C)CCCC(C)C)C(=O)c2ccccc2C1=O (stereo not drawn),25.4
13,CCCCN(C(=O)CCC(=O)Nc1cc(C)on1)C(C(=O)NC1CCCC1)c1ccc(OCC)cc1 (stereo not drawn),-38.3
14,CCOC(=O)Cc1csc(NC(=O)CN2C(=O)c3ccccc3C2=O)n1,9.83
15,COc1ccc(-n2nc(C(=O)NCC(=O)N3CCC4(CC3)OCCO4)c3ccccc3c2=O)cc1,13.5
16,CC1CCC(NC(=O)CCS(=O)(=O)c2ccc3c(c2)NC(=O)CO3)CC1 (stereo not drawn),5.55
17,CSc1ccc(CN2CCC(Oc3ccc(C(=O)N4CCCC4)cc3)CC2)cc1,-71.1
18,CCOC(=O)C1=C(C)NC(SCC(N)=O)=C(C#N)C1c1ccncc1 (stereo not drawn),-2.1
19,O=C(Nc1cccnc1)c1c(O)c2cccc3c2n(c1=O)CC3,10.5
20,CC(C)C(=O)Nc1ccc(NC(=O)c2cccnc2)cn1,0.629
21,Nc1cc(Nc2ccccc2)ccn1.O=P(O)(O)O,-7.8
